Legend:
[1] = test system: alanine transferase (ALT); settings: in vivo
[2] = test system: HBeAg; assay: HBeAg / Anti-HBe serotyping (VITROS ECi); type: in vivo, hepatitis B virus
Description: (§1) Serotyping was performed using a VITROS ECi Immunodiagnostic System.

[3] = test system: patients with HBeAg-positive, chronic hepatitis B; assay: Adverse events and injection site reactions in the dosing regimen study (Parts 1 and 2); type: in vivo, human; settings: Part 2 Gp A (N=21)/B (N=22)/C (N=11): 2x2 mg pSG2.HBs, 2x5×10^8 pfu MVA.HBs; lamivudine 100 mg/day
[4] = test system: HBV DNA; assay: Viral load (Amplicor HBV Monitor / COBAS Taqman); type: in vivo, hepatitis B virus; settings: Treatment phase; Part 2 Gp A (n = 21)/B (n = 22)/C (n = 11)
Description: Viral load measurements were carried out as follows:
Groups 1-3: An Amplicor HBV Monitor (Roche) was used to measure viral load, according to the manufacturer's instructions:
Sensitivity: 200 copies/mL
Groups A, B, C: The COBAS Taqman system (Roche) was used according to the manufacturer's instructions:
Sensitivity: 35 copies/mL
All viraemias above the linear range were reported as “Above maximum linear range”.

[5] = test system: HBs peptide pools (PreS2 + S ayw) and HbsAg protein; assay: Ex vivo IFN-gamma ELISPOT of patient PBMC; type: in vivo, human; settings: Treatment phase; Part 2 Gp A (n = 21)/B (n = 22)/C (n = 11)
Description: ELISPOT Assays were carried out by Cellular Technology Limited (CTL Laboratory LLC. 10515 Carnegie Ave., Suite 503 Cleveland Ohio 44106, USA) using the following assay conditions:
The following peptides were pooled and used as antigens:
The HBs series of peptides are arranged into 4 distinct pools of peptides, each containing up to 12 total peptides:
The entire HbsAg protein was also used as an antigen.
An ELISPOT response to a peptide pool (or HbsAg protein) was considered to have occurred when the mean +/− standard deviation for the peptide pool, or HbsAg protein, was greater than the mean +3 standard deviations of that patient's negative control.

[6] = test system: HBsAg; assay: HBsAg / Anti-HBs serotyping (VITROS ECi); type: in vivo, hepatitis B virus
Description: as §1

[7] = Treatment phase, Part 2 Gp A (n = 21)/B (n = 22)/C (n = 11)
[8] = Week 14/18, Part 2 Group A (n 21)/B (n 22)/C (n 11)

## Nc1ccn([C@@H]2CS[C@H](CO)O2)c(=O)n1 [lamivudine, Lamivudine]
[1]
  ALT Normalized (patients): 2
[2]; [7]
  HBeAg Loss (patients): 1
  HBeAg seroconversion (patients): 0
[2]; [8]
  Anti Hbe+ (patients): 0
  HBeAg+ (patients): 8
  HBeAg− (patients): 1
  HBeAg−, percent of patients: 9%
[3]
  SAEs: 0
  Total No. AEs: 4
  Treatment related AEs: 1
[4]
  HBV DNA <1.5 log (patients): 9
[5]
  Immunological response (patients, ELISPOT): 5
[6]; [7]
  HBsAg Loss (patients): 1
  HBsAg seroconversion (patients): 0
[6]; [8]
  Anti Hbs+ (patients): 1
  HBsAg+ (patients): 8
  HBsAg− (patients): 1
  anti-HBs Seroconversion (patients): 0

Source: patent US20080267996A1 (priority 2005, published 2008)
